{"source": "paper PMC6410080", "about": "(Viruses, 2019)", "key": {"HeLa Kyoto cells": {"test_system": "HeLa Kyoto cells", "details": "MTT"}, "[1]": {"test_system": "clathrin-mediated uptake of transferrin", "details": "HeLa Kyoto, 10 μM, 10, 20 and 30 min"}}, "note": "Structures can show the parent of a compound that is named as a salt.", "data": [{"smiles": "CC(C)(C)c1cc(C=C(C#N)C#N)cc(C(C)(C)C)c1O", "note": "[Tyrphostin A9]", "values": [{"measurement": "TC50 SFV (7 h)", "setting": "HeLa Kyoto cells", "value": ">50", "unit": "µM"}, {"measurement": "Transferrin internalisation compared to DMSO controls", "setting": "[1]", "value": "inhibit both virus and transferrin internalisation"}]}, {"smiles": "CCCCc1oc2ccccc2c1C(=O)c1cc(I)c(OCCN(CC)CC)c(I)c1", "note": "[Amiodarone, Amiodarone hydrochloride]", "values": [{"measurement": "TC50 SFV (7 h)", "setting": "HeLa Kyoto cells", "value": 96.8, "unit": "µM"}]}]}
